Laboratory results from PubChem BioAssay AID2100 (National Center for Advancing Translational Sciences (NCATS), 2009).
Out of some 300,000 compounds screened, about 1,200 (0.4%) were called active. Inconclusive results, whose numbers are uncertain, are shown with a selection of clear calls. Calls come from the whole dose curve; as a rule, active = well fitted inhibition curve with a large enough effect; inconclusive = small, poorly fitted or top-dose-only effect, or another doubt; inactive = no such curve, though single readings can be large or run the other way. Potencies of inconclusive entries are doubtful fits and often do not repeat.

biological target: Lysosomal alpha-glucosidase (Homo sapiens) (UniProt P10253); experiment: qHTS Assay for Inhibitors and Activators of Human alpha-Glucosidase Cleavage of Glycogen; conditions: recombinant GAA, glycogen substrate, Amplex Red glucose oxidase fluorescence; series mostly up to 76.4 µM
How it was run: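 Recombinant enzyme (4 nM final) with compounds titrated up to 77 uM and bovine liver glycogen (30 ug) in citrate pH 5.0, 0.01% Tween-20, 37 C 40 min. Released glucose detected by Amplex Red/glucose oxidase (Ex 573/Em 610); AC50 from Hill fits.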
Potency is the fitted concentration of half-maximal effect.

Question: How did the Potency turn out when `Cc1nc(N)sc1-c1csc(Nc2ccccn2)n1` was run?
Answer: inconclusive: 25.1 µM [inhibitor, single point]

Question: Which Potency does the source give for `CCN(CC)S(=O)(=O)c1cccc(-c2n[nH]c(=S)n2/N=C/c2ccc(OC(F)F)cc2)c1` here?
Answer: inconclusive: 44.7 µM [inhibitor, single point]

Question: For `CCOc1ccc(N(CC)S(=O)(=O)N2CCCC(C(=O)NCc3ccc(Cl)cc3)C2)cc1` (stereo unspecified), which Potency is on record?
Answer: inactive

Question: `CNC(=S)NNC(=O)c1ccc(N(C)C)cc1` was tested. Which Potency did it give?
Answer: inconclusive: 17.6 µM [inhibitor, single point]

Question: For `Cc1ccc(S(=O)(=O)NNC(=O)Nc2cccc(C)c2C)c(C)c1`, which Potency is on record?
Answer: inconclusive: 44.7 µM [inhibitor, partial curve]

Question: With `CCOc1cccc(/C=N/NC(=S)Nc2ccccc2[N+](=O)[O-])c1O` as the compound, how does the Potency read?
Answer: inactive

Question: Which Potency does the source give for `COc1ccc(C2CC(c3ccccc3)=NN2c2ccc(Cl)c(C(=O)O)c2)cc1` (stereo unspecified) here?
Answer: inconclusive: 35.5 µM [activator, single point]

Question: With `CCC(C)c1ccc(O)c(N)c1` (stereo unspecified) as the compound, how does the Potency read?
Answer: active: 24.9 µM

Question: Which Potency does the source give for `CSc1ccc(/C=N/n2c(C3CCCCC3)n[nH]c2=S)cc1` here?
Answer: inconclusive: 6.26 µM [inhibitor, partial curve]

Question: With `CCCCCC(=O)Nc1ccc(C2C(=O)c3ccccc3C2=O)cc1` as the compound, how does the Potency read?
Answer: inconclusive: 39.5 µM [inhibitor, single point]

Question: With `Cc1cc(/C=C2\SC(=S)NC2=O)cc(C)c1O` as the compound, how does the Potency read?
Answer: inconclusive: 3.55 µM [inhibitor, single point]

Question: With `Cn1c(-c2ccccc2)cnc1NCc1cc2c(cc1[N+](=O)[O-])OCO2` as the compound, how does the Potency read?
Answer: inconclusive: 28.2 µM [inhibitor, partial curve]

Question: With `Cc1cc(Nc2n[nH]c(N)c2C#N)ccc1F` as the compound, how does the Potency read?
Answer: inconclusive: 31.6 µM [inhibitor, partial curve]

Question: `COc1cc(NS(=O)(=O)c2cc3[nH]c(=O)c(=O)[nH]c3cc2C)cc(OC)c1OC` was tested. Which Potency did it give?
Answer: inconclusive: 50.1 µM [inhibitor, partial curve]

Question: Which Potency does the source give for `N#Cc1c2c(c(Nc3ccc(O)cc3)n3c1nc1ccccc13)CCC2` here?
Answer: inconclusive: 12.6 µM [inhibitor, partial curve]

Question: With `C/C=C/C=N/Nc1nc(-c2ccc([N+](=O)[O-])cc2)cs1` as the compound, how does the Potency read?
Answer: inconclusive: 12.6 µM [inhibitor, partial curve]

Question: `O=C(NNc1nc2ccccc2s1)Nc1ccc(Cl)c(Cl)c1` was tested. Which Potency did it give?
Answer: inconclusive: 14.1 µM [inhibitor, partial curve]

Question: `O=c1cc(-c2ccc(O)cc2)oc2c(C3OCC(O)C(O)C3O)c(O)c(C3OC(CO)C(O)C(O)C3O)c(O)c12` (stereo unspecified) was tested. Which Potency did it give?
Answer: inconclusive: 28.2 µM [inhibitor, single point]

Question: Which Potency does the source give for `C/C(CC(=O)Nc1ccc(C)c(Cl)c1)=N\NC(=O)c1cccc(O)c1` here?
Answer: inconclusive: 28.2 µM [inhibitor, single point]

Question: `CC(C)(C)C(=O)NC(NC(=S)Nc1sc2c(c1C#N)CCCC2)C(Cl)(Cl)Cl` (stereo unspecified) was tested. Which Potency did it give?
Answer: inconclusive: 28.2 µM [inhibitor, partial curve]

Question: `COc1ccccc1[C@@H]1C(c2cccc(C)c2)=NN(c2ccccc2)[C@H]1C(=O)N1CCOC1=O` was tested. Which Potency did it give?
Answer: inconclusive: 25.1 µM [inhibitor, single point]

Question: `CNc1ccc(Br)cc(C(=O)/C=C/c2ccc(OC)cc2)c1=O` was tested. Which Potency did it give?
Answer: inconclusive: 25.1 µM [inhibitor, partial curve]

Question: Which Potency does the source give for `COc1ccc(S(=O)(=O)NNC(N)=S)cc1` here?
Answer: inconclusive: 12.6 µM [inhibitor, partial curve]

Question: `COc1ccc(-c2nc(CS(=O)CC(=O)NC3CCCc4ccccc43)c(C)o2)cc1OC` (stereo unspecified) was tested. Which Potency did it give?
Answer: inconclusive: 100 µM [inhibitor, partial curve, poor fit]

Question: Which Potency does the source give for `CCCC(=O)Oc1c(Sc2ccc(C)cc2)c(C)nn1-c1ccccc1` here?
Answer: inconclusive: 28.2 µM [inhibitor, partial curve]

Question: For `O=C(CNC(=O)c1cccc(Br)c1)N/N=C/c1ccc[nH]1`, which Potency is on record?
Answer: inconclusive: 5.01 µM [inhibitor, full curve, poor fit]

Question: Which Potency does the source give for `Cc1cc(C)c(O)c(NC(=S)NC(=O)Cc2ccccc2)c1` here?
Answer: inconclusive: 2.24 µM [inhibitor, partial curve]

Question: Which Potency does the source give for `COCCN(C(=O)CN1CCc2ccccc2C1)c1c(N)n(Cc2ccccc2)c(=O)[nH]c1=O` here?
Answer: inconclusive: 35.2 µM [activator, single point]

Question: How did the Potency turn out when `CCOC(=O)NC1(NCc2ccccc2)Oc2ccccc2O1` was run?
Answer: active: 15.7 µM

Question: How did the Potency turn out when `CCOc1ccc(NC(=O)Cn2cc(C(=O)c3ccc(F)cc3)c(=O)c3cc4c(cc32)OCO4)cc1` was run?
Answer: inactive

Question: Which Potency does the source give for `COc1ccc(-c2nc3ccccc3n2Cc2ccc(C(C)C)cc2)cc1` here?
Answer: inconclusive: 14.1 µM [inhibitor, full curve, poor fit]

Question: `O=C(Nc1ccc2nc(SCCOc3ccccc3)sc2c1)c1ccco1` was tested. Which Potency did it give?
Answer: inactive

Question: For `Cc1ccsc1C(=O)NNC(=S)NCC(C)C`, which Potency is on record?
Answer: inconclusive: 22.2 µM [inhibitor, partial curve]

Question: `COc1cc(/C=C2\C(=O)N(c3ccc(NC(C)=O)cc3)N=C2c2ccccc2)ccc1O` was tested. Which Potency did it give?
Answer: inconclusive: 22.4 µM [inhibitor, partial curve]

Question: For `CC(C)(C)c1csc(N/N=C/c2cccnc2)n1`, which Potency is on record?
Answer: inconclusive: 39.5 µM [inhibitor, single point]

Question: Which Potency does the source give for `CN1CN(C)C(c2ccncc2)=C1c1ccncc1` here?
Answer: inconclusive: 35.5 µM [activator, single point]

Question: With `CCc1noc(-c2ccc(N3CCC(C)CC3)c([N+](=O)[O-])c2)n1` as the compound, how does the Potency read?
Answer: inactive

Question: For `CN(C)/C=C/c1c([N+](=O)[O-])c2ccc(O)cc2n1-c1ccccc1`, which Potency is on record?
Answer: inconclusive: 50.1 µM [inhibitor, single point]

Question: Which Potency does the source give for `COc1ccc(-c2cc(-c3n[nH]c(=S)n3-c3cccc4ccccc34)[nH]n2)cc1` here?
Answer: inconclusive: 39.8 µM [inhibitor, partial curve]

Question: Which Potency does the source give for `Cc1nc(N/N=C/c2ccc(O)cc2O)cc(N2CCOCC2)n1` here?
Answer: inconclusive: 7.08 µM [inhibitor, single point]

Question: `COc1cc(/C=N/N2CCN(C3c4ccccc4-c4ccccc43)CC2)cc(OC)c1O` was tested. Which Potency did it give?
Answer: inconclusive: 10 µM [inhibitor, partial curve]
